Assay results published in the antibiotic and cytotoxicity screens of Wong et al. (2023).
The other results are listed elsewhere or left out.

These compounds were tested on HepG2 (assay: cytotoxicity call (relative viability < 0.9)). Conditions: 10 µM.
C[C@@H]1CN([C@H](C)CO)C(=O)Cc2cc(NS(=O)(=O)c3ccccc3)ccc2O[C@@H]1CN(C)S(=O)(=O)c1cccs1 was tested, and the cytotoxicity call was “inactive”.
C[C@@H]1CCCCO[C@@H](CN(C)S(=O)(=O)c2cn(C)cn2)[C@H](C)CN([C@@H](C)CO)C(=O)c2cc(NC(=O)Nc3cccc4ccccc34)ccc2O1 was tested, and the cytotoxicity call was “inactive”.
For CN1CCN(C(=O)C[C@@H]2CC[C@@H]3[C@@H](COc4ccc(NC(=O)C5CCOCC5)cc4C(=O)N3C)O2)CC1, the cytotoxicity call was “inactive”.
For C[C@@H]1CN([C@H](C)CO)C(=O)c2cccc(NS(=O)(=O)c3ccccc3)c2O[C@H]1CN(C)Cc1ccncc1, the cytotoxicity call was “inactive”.
With COc1ccc(NC(=O)N(C)C[C@H]2Oc3c(NC(=O)Nc4ccc(C(F)(F)F)cc4)cccc3C(=O)N([C@@H](C)CO)C[C@H]2C)cc1 the cytotoxicity call was “active”.
For C[C@H](CO)N1C[C@H](C)[C@@H](CN(C)S(=O)(=O)c2cn(C)cn2)Oc2ccc(NC(=O)Cc3cn(C)c4ccccc34)cc2CC1=O, the cytotoxicity call was “inactive”.
With CCCC#Cc1cnc2c(c1)C(=O)N([C@H](C)CO)C[C@@H](C)[C@@H](CN(C)S(=O)(=O)c1cccc(OC)c1)O2 the cytotoxicity call was “inactive”.
In the case of Cc1noc(C)c1NC(=O)Nc1ccc2c(c1)C(=O)N([C@H](C)CO)C[C@H](C)[C@@H](CN(C)C(=O)Nc1ccc(C(F)(F)F)cc1)OCCCC[C@@H](C)O2, the cytotoxicity call is reported as “inactive”.
With CCNC1CN(CCCOC)S(=O)(=O)c2sc(S(N)(=O)=O)cc21 (configuration not stated) the cytotoxicity call was “inactive”.
In the case of C[C@@H]1CN([C@@H](C)CO)C(=O)CCCn2cc(nn2)CO[C@@H]1CN(C)C(=O)Nc1cccc(Oc2ccccn2)c1, the cytotoxicity call is reported as “inactive”.
For COc1ccc(S(=O)(=O)N(C)C[C@@H]2OCCCC[C@H](C)Oc3ccc(NS(=O)(=O)c4cn(C)cn4)cc3C(=O)N([C@@H](C)CO)C[C@H]2C)cc1, the cytotoxicity call was “inactive”.
With CC(C)NC(=O)N(C)C[C@H]1Oc2ccc(NC(=O)NC3CCCCC3)cc2CC(=O)N([C@H](C)CO)C[C@@H]1C the cytotoxicity call was “inactive”.
CCCN(C)C[C@H]1OCCCC[C@@H](C)Oc2ccc(NC(=O)CCC(F)(F)F)cc2C(=O)N([C@@H](C)CO)C[C@H]1C was tested, and the cytotoxicity call was “inactive”.
In the case of O=c1oc2cc(O)ccc2s1, the cytotoxicity call is reported as “inactive”.
For C[C@@H]1CN([C@H](C)CO)C(=O)Cc2cc(NS(=O)(=O)c3cn(C)cn3)ccc2O[C@H]1CN(C)Cc1ccc2c(c1)OCO2, the cytotoxicity call was “inactive”.
In the case of Cc1noc(C)c1S(=O)(=O)N(C)C[C@@H]1Oc2c(NS(=O)(=O)c3cn(C)cn3)cccc2C(=O)N([C@@H](C)CO)C[C@@H]1C, the cytotoxicity call is reported as “inactive”.
In the case of CN(C)CCNC(=O)c1ccccn1, the cytotoxicity call is reported as “inactive”.
